# Test results taken from a collection of fitness landscapes (doi:10.1126/science.1257360).
# The list shows a part of the results.
# B1: PhoQ; a variant is named by its letters at X, in order, P23837 (parent)
# chain: MKKLLRLFFPLSLRVRFLLATAAVVLVLSLAYGMVALIGYSVSFDKTTFRLLRGESNLFYTLAKWENNKLHVELPENIDKQSPTMTLIYDENGQLLWAQRDVPWLMKMIQPDWLKSNGFHEIEADVNDTSLLLSGDHSIQQQLQEVREDDDDAEMTHSVAVNVYPATSRMPKLTIVVVDTIPVELKSSYMVWSWFIYVLSANLLLVIPLLWVAAWWSLRPIEALAKEVRELEEHNRELLNPATTRELTSLVRNLNRLLKSERERYDKYRTTLTDLTHSLKTPLXXLQXXLRSLRSEKMSVSDAEPVMLEQISRISQQIGYYLHRASMRGGTLLSRELHPVAPLLDNLTSALNKVYQRKGVNISLDISPEISFVGEQNDFVEVMGNVLDNACKYCLEFVEISARQTDEHLYIVVEDDGPGIPLSKREVIFDRGQRVDTLRPGQGVGLAVAREITEQYEGKIVAGESMLGGARMEVIFGRQHSAPKDE
# Variants of: B1
# Test: enrichment ratio after two sorts for PhoP signalling (ratio (wild type AVST 3.29)); higher = more functional
# Details: with PhoP (E. coli)
row,Variant,enrichment ratio
1,QYMH,≤ 0.25
2,HDTF,≤ 0.25
3,GLSR,≤ 0.25
4,KMKC,≤ 0.25
5,QFIW,≤ 0.25
6,IAYA,≤ 0.25
7,HWVD,≤ 0.25
8,NQAE,≤ 0.25
9,TCRI,8.19
10,RPVW,≤ 0.25
11,TYLF,≤ 0.25
12,LLSP,≤ 0.25
13,SRMC,≤ 0.25
14,RKLE,≤ 0.25
15,AIWC,≤ 0.25
16,WRWF,≤ 0.25
17,WSLQ,3.01
18,FCCH,≤ 0.25
19,GMQD,≤ 0.25
20,DSDL,≤ 0.25
21,QISW,≤ 0.25
22,RDMG,≤ 0.25
23,MRNH,≤ 0.25
24,LGFI,9.12

row,Variant,enrichment ratio
1,LGGH,≤ 0.25
2,DAPI,≤ 0.25
3,AMYH,≤ 0.25
4,RHCK,≤ 0.25
5,IIGA,≤ 0.25
6,GFQS,≤ 0.25
7,LCDW,≤ 0.25
8,SQYN,≤ 0.25
9,IECF,≤ 0.25
10,ESLW,≤ 0.25
11,RTSF,≤ 0.25
12,KRNI,≤ 0.25
13,ASHP,≤ 0.25
14,RRVP,≤ 0.25
15,PRMR,≤ 0.25
16,SVMP,≤ 0.25
17,RMDF,≤ 0.25
18,DKID,≤ 0.25
19,RTDS,≤ 0.25
20,ITYV,≤ 0.25
21,VMIG,≤ 0.25
22,TCWH,≤ 0.25
23,ICRL,≤ 0.25
24,EKHN,≤ 0.25

row,Variant,enrichment ratio
1,RPWP,≤ 0.25
2,WNFP,≤ 0.25
3,WASI,≤ 0.25
4,LKIA,≤ 0.25
5,DLND,≤ 0.25
6,QLTH,≤ 0.25
7,GVSW,≤ 0.25
8,FDTP,≤ 0.25
9,LIFQ,≤ 0.25
10,PWNP,≤ 0.25
11,VLCP,≤ 0.25
12,NMGA,≤ 0.25
13,RTYV,≤ 0.25
14,GQQN,≤ 0.25
15,WPPR,≤ 0.25
16,TNDG,≤ 0.25
17,YWQC,≤ 0.25
18,AHDK,≤ 0.25
19,MGTD,≤ 0.25
20,ICTQ,≤ 0.25
21,GYHC,≤ 0.25
22,MHDG,≤ 0.25
23,NCCG,≤ 0.25
24,MKIA,≤ 0.25

row,Variant,enrichment ratio
1,DMCL,≤ 0.25
2,GIKH,≤ 0.25
3,PLSD,0.397
4,YYKK,≤ 0.25
5,QRQR,≤ 0.25
6,MGHG,≤ 0.25
7,QKDT,≤ 0.25
8,WENK,≤ 0.25
9,EMGP,≤ 0.25
10,MAMC,≤ 0.25
11,IYMF,≤ 0.25
12,ICVY,≤ 0.25
13,FGAT,≤ 0.25
14,AFAK,≤ 0.25
15,RVRI,≤ 0.25
16,SQEN,≤ 0.25
17,SVYY,0.294
18,SIQK,2.81
19,APLM,≤ 0.25
20,NNKW,≤ 0.25
21,VWVN,≤ 0.25
22,LGQQ,≤ 0.25
23,FGMA,0.944
24,MPGT,≤ 0.25

row,Variant,enrichment ratio
1,HDMG,≤ 0.25
2,WRSG,≤ 0.25
3,PDEG,≤ 0.25
4,FMWF,≤ 0.25
5,LHKD,≤ 0.25
6,ENNP,≤ 0.25
7,ARGI,≤ 0.25
8,DRSV,≤ 0.25
9,QVGK,≤ 0.25
10,RDNL,≤ 0.25
11,KPTG,≤ 0.25
12,LVWT,≤ 0.25
13,ICSC,≤ 0.25
14,AWIC,≤ 0.25
15,FQFC,≤ 0.25
16,FKWG,≤ 0.25
17,DDSP,≤ 0.25
18,TVCI,0.444
19,VCMW,≤ 0.25
20,NPTR,≤ 0.25
21,DHVM,≤ 0.25
22,DSGP,≤ 0.25
23,EGFY,≤ 0.25
24,MARC,≤ 0.25

row,Variant,enrichment ratio
1,DYIM,≤ 0.25
2,WVVD,≤ 0.25
3,GGTN,≤ 0.25
4,FFET,≤ 0.25
5,RRNG,≤ 0.25
6,RLFY,≤ 0.25
7,ILMG,≤ 0.25
8,LTMT,≤ 0.25
9,FEHV,≤ 0.25
10,SGQI,8
11,VYRF,≤ 0.25
12,ASSG,9.05
13,VARG,≤ 0.25
14,VRCS,≤ 0.25
15,GQCK,≤ 0.25
16,YNEF,≤ 0.25
17,DWGS,≤ 0.25
18,KMMG,≤ 0.25
19,EPAP,≤ 0.25
20,PNTA,≤ 0.25
21,MFAN,≤ 0.25
22,AHKP,≤ 0.25
23,ERGP,≤ 0.25
24,GDYF,≤ 0.25

row,Variant,enrichment ratio
1,LVVL,≤ 0.25
2,MDVK,≤ 0.25
3,IAMQ,7.36
4,HYWF,≤ 0.25
5,KCMS,≤ 0.25
6,FPFW,≤ 0.25
7,PCCL,≤ 0.25
8,QVCS,≤ 0.25
9,EHIM,≤ 0.25
10,VIGQ,≤ 0.25
11,WEID,≤ 0.25
12,VHAA,≤ 0.25
13,FELN,13.7
14,IIPV,≤ 0.25
15,RPYC,≤ 0.25
16,YQRP,≤ 0.25
17,FTKV,≤ 0.25
18,WVSW,≤ 0.25
19,PHRL,≤ 0.25
20,STVV,9.33
21,WQLH,≤ 0.25
22,VDDI,≤ 0.25
23,LIHP,0.285
24,RSWD,≤ 0.25

row,Variant,enrichment ratio
1,WEPW,≤ 0.25
2,RSSP,≤ 0.25
3,VCAN,≤ 0.25
4,GDPQ,≤ 0.25
5,KNVK,≤ 0.25
6,NEGL,≤ 0.25
7,EPIH,≤ 0.25
8,WRFE,≤ 0.25
9,GEYG,≤ 0.25
10,HRAQ,≤ 0.25
11,WCPE,≤ 0.25
12,SNFY,≤ 0.25
13,LVAF,≤ 0.25
14,HKDC,≤ 0.25
15,LPPS,≤ 0.25
16,LPEK,≤ 0.25
17,NRIF,≤ 0.25
18,PWPQ,≤ 0.25
19,NMHA,≤ 0.25
20,PQPS,≤ 0.25
21,GGGR,≤ 0.25
22,TGES,≤ 0.25
23,WEFQ,≤ 0.25
24,PGYS,≤ 0.25

row,Variant,enrichment ratio
1,QFHG,≤ 0.25
2,ETNP,≤ 0.25
3,NGGY,≤ 0.25
4,LRSR,≤ 0.25
5,AKVD,≤ 0.25
6,AHSN,≤ 0.25
7,LNAW,≤ 0.25
8,NYTG,≤ 0.25
9,YCMA,0.422
10,FFDA,≤ 0.25
11,YTWS,≤ 0.25
12,FRGL,≤ 0.25
13,YEMF,≤ 0.25
14,NEAC,15.1
15,PAED,≤ 0.25
16,CLLR,≤ 0.25
17,FLLY,≤ 0.25
18,SVYD,≤ 0.25
19,RYSG,≤ 0.25
20,RDLN,≤ 0.25
21,NGMH,≤ 0.25
22,IKKF,≤ 0.25
23,HKHL,≤ 0.25
24,HGHG,≤ 0.25

row,Variant,enrichment ratio
1,ESKQ,≤ 0.25
2,YGWS,≤ 0.25
3,EGAR,≤ 0.25
4,PRTS,≤ 0.25
5,SRIS,≤ 0.25
6,SNIS,1.26
7,QYIP,≤ 0.25
8,ACYM,0.253
9,EYYP,≤ 0.25
10,HHPC,≤ 0.25
11,YRRE,≤ 0.25
12,FTLH,4.51
13,IDVE,≤ 0.25
14,IAVI,≤ 0.25
15,KSQL,≤ 0.25
16,THEL,≤ 0.25
17,MECC,14.4
18,DFAM,≤ 0.25
19,QFRF,≤ 0.25
20,VQPI,≤ 0.25
21,ALCH,6.41
22,AGKI,≤ 0.25
23,WLNM,≤ 0.25
24,RHNP,≤ 0.25

row,Variant,enrichment ratio
1,FGAD,≤ 0.25
2,FPLV,≤ 0.25
3,IAFC,≤ 0.25
4,EFMP,≤ 0.25
5,IPIM,2.05
6,FCTK,≤ 0.25
7,NALT,≤ 0.25
8,WMYM,≤ 0.25
9,GEHV,≤ 0.25
10,DLQP,≤ 0.25
11,RLES,≤ 0.25
12,FWIP,≤ 0.25
13,KWFH,≤ 0.25
14,MSHL,8.24
15,IVPH,≤ 0.25
16,FAHP,≤ 0.25
17,MTGA,≤ 0.25
18,HRWN,≤ 0.25
19,KMVI,≤ 0.25
20,IHSP,≤ 0.25
21,FGMW,≤ 0.25
22,KSRH,≤ 0.25
23,IYCK,≤ 0.25
24,IWQV,≤ 0.25

row,Variant,enrichment ratio
1,GDHD,≤ 0.25
2,NGFM,≤ 0.25
3,LVTP,≤ 0.25
4,MTNH,≤ 0.25
5,PFPN,≤ 0.25
6,PHLI,≤ 0.25
7,VHSN,≤ 0.25
8,FCQM,≤ 0.25
9,FPIN,≤ 0.25
10,LPVL,≤ 0.25
11,FTGY,≤ 0.25
12,MGAG,1.81
13,RCCM,≤ 0.25
14,ATSI,6.47
15,LRQC,≤ 0.25
16,FHYH,≤ 0.25
17,RDSN,≤ 0.25
18,IHKP,≤ 0.25
19,TYQC,≤ 0.25
20,MKHN,≤ 0.25
21,YFWK,≤ 0.25
22,IIKF,≤ 0.25
23,GMPA,≤ 0.25
24,KEAE,≤ 0.25

row,Variant,enrichment ratio
1,DNRT,≤ 0.25
2,VYEL,≤ 0.25
3,TVAS,14.3
4,WTWA,≤ 0.25
5,CNVL,0.317
6,AGKY,≤ 0.25
7,EDRK,≤ 0.25
8,ISFD,≤ 0.25
9,NDVA,≤ 0.25
10,QKGG,≤ 0.25
11,GYFN,≤ 0.25
12,STPW,≤ 0.25
13,TFGW,≤ 0.25
14,TCNV,16.2
15,KSRP,≤ 0.25
16,NTEK,≤ 0.25
17,GMWT,≤ 0.25
18,FRWH,≤ 0.25
